Test results published in article PMC9911399, “Two distinct binding modes provide the RNA-binding protein RbFox with extraordinary sequence specificity”.
Numbering of substitutions follows the chain as printed; changes in the protein carry UniProt numbers. Some of the results follow.

B1: GGUCACA (DNA:RNA)
RNA: GGGAGACCGGAAUUCAGAUUGUCCGGUCACAUUAAAUCCCGUCGUAGCCACCA
DNA 1: CAATCTGAATTCCGGTCTCCC
DNA 2: TGGTGGCTACGACGGGATT
B2: CCUAGCC (DNA:RNA)
RNA: B1 RNA with G25C, G26C, C28A, A29G, A31C
DNA 1: CAATCTGAATTCCGGTCTCCC
DNA 2: TGGTGGCTACGACGGGATT
B3: GAAGGUG (DNA:RNA)
RNA: B1 RNA with G26A, U27A, C28G, A29G, C30U, A31G
DNA 1: CAATCTGAATTCCGGTCTCCC
DNA 2: TGGTGGCTACGACGGGATT
B4: CGGCAUU (DNA:RNA)
RNA: B1 RNA with G25C, U27G, C30U, A31U
DNA 1: CAATCTGAATTCCGGTCTCCC
DNA 2: TGGTGGCTACGACGGGATT
B5: GUCUGUC (DNA:RNA)
RNA: B1 RNA with G26U, U27C, C28U, A29G, C30U, A31C
DNA 1: CAATCTGAATTCCGGTCTCCC
DNA 2: TGGTGGCTACGACGGGATT
B6: GUCGUAA (DNA:RNA)
RNA: B1 RNA with G26U, U27C, C28G, A29U, C30A
DNA 1: CAATCTGAATTCCGGTCTCCC
DNA 2: TGGTGGCTACGACGGGATT
B7: UUGUACA (DNA:RNA)
RNA: B1 RNA with G25U, G26U, U27G, C28U
DNA 1: CAATCTGAATTCCGGTCTCCC
DNA 2: TGGTGGCTACGACGGGATT
B8: CAUUCAU (DNA:RNA)
RNA: B1 RNA with G25C, G26A, C28U, A29C, C30A, A31U
DNA 1: CAATCTGAATTCCGGTCTCCC
DNA 2: TGGTGGCTACGACGGGATT
B9: CCCUUCU (DNA:RNA)
RNA: B1 RNA with G25C, G26C, U27C, C28U, A29U, A31U
DNA 1: CAATCTGAATTCCGGTCTCCC
DNA 2: TGGTGGCTACGACGGGATT
B10: AUUCCUG (DNA:RNA)
RNA: B1 RNA with G25A, G26U, A29C, C30U, A31G
DNA 1: CAATCTGAATTCCGGTCTCCC
DNA 2: TGGTGGCTACGACGGGATT
B11: AUGUAUA (DNA:RNA)
RNA: B1 RNA with G25A, G26U, U27G, C28U, C30U
DNA 1: CAATCTGAATTCCGGTCTCCC
DNA 2: TGGTGGCTACGACGGGATT
B12: GUGGUCA (DNA:RNA)
RNA: B1 RNA with G26U, U27G, C28G, A29U
DNA 1: CAATCTGAATTCCGGTCTCCC
DNA 2: TGGTGGCTACGACGGGATT
B13: GCGAUGC (DNA:RNA)
RNA: B1 RNA with G26C, U27G, C28A, A29U, C30G, A31C
DNA 1: CAATCTGAATTCCGGTCTCCC
DNA 2: TGGTGGCTACGACGGGATT
B14: CCAGAGA (DNA:RNA)
RNA: B1 RNA with G25C, G26C, U27A, C28G, C30G
DNA 1: CAATCTGAATTCCGGTCTCCC
DNA 2: TGGTGGCTACGACGGGATT
B15: UCAGCUU (DNA:RNA)
RNA: GGGAGACCGGAAUUCAGAUUGUCCUCAGCUUUUAAAUCCCGUCGUAGCCACCA
DNA 1: CAATCTGAATTCCGGTCTCCC
DNA 2: TGGTGGCTACGACGGGATT
B16: UUUAGUG (DNA:RNA)
RNA: B15 RNA with C26U, A27U, G28A, C29G, U31G
DNA 1: CAATCTGAATTCCGGTCTCCC
DNA 2: TGGTGGCTACGACGGGATT
B17: GCAGGUC (DNA:RNA)
RNA: B15 RNA with U25G, C29G, U31C
DNA 1: CAATCTGAATTCCGGTCTCCC
DNA 2: TGGTGGCTACGACGGGATT
B18: UAGACGC (DNA:RNA)
RNA: B15 RNA with C26A, A27G, G28A, U30G, U31C
DNA 1: CAATCTGAATTCCGGTCTCCC
DNA 2: TGGTGGCTACGACGGGATT
B19: AUGUACC (DNA:RNA)
RNA: B1 RNA with G25A, G26U, U27G, C28U, A31C
DNA 1: CAATCTGAATTCCGGTCTCCC
DNA 2: TGGTGGCTACGACGGGATT
B20: UAGAGCC (DNA:RNA)
RNA: B1 RNA with G25U, G26A, U27G, C28A, A29G, A31C
DNA 1: CAATCTGAATTCCGGTCTCCC
DNA 2: TGGTGGCTACGACGGGATT

What follows are binders tested against T1, RBFOX1 RRM RbFoxmut (Fox-RRM*) (Homo sapiens, UniProt Q9NWB1 109-208, R118D;E147R;N151S;E152T) (assay: EMSA; HiTS-Eq, 1 nM pool, 10 min; buffer printed only for the single-RNA assays: 10 mM Tris pH 7.5, 150 mM NaCl, 3.4 mM EDTA, 0.001% NP-40, 30 C). Details: tags: His6 N-terminal (pET28a); label: 5' 32P.
T1 sequence: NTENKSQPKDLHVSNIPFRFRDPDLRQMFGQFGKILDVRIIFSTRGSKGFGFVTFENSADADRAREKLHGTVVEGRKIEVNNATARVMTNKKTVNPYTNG
Procedure, shortened: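 A pool of RNA with 7 randomized nucleotides, 5′-radiolabelled and with DNA-annealed flanks, was equilibrated at 1 nM for 10 min in 50 µL with purified RbFox RRM, wild type or mutant, across increasing protein concentrations. Free RNA was separated by 8% native PAGE, excised, reverse-transcribed, barcoded by PCR and sequenced. Relative association constants were obtained from read-count changes of each RNA species versus the control reaction and normalised to the cognate motif.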

Binder	binding signal
B1	0.0604 KA relative to UGCAUGU
B2	0.149 KA relative to UGCAUGU
B3	0.102 KA relative to UGCAUGU
B4	0.0736 KA relative to UGCAUGU
B5	0.257 KA relative to UGCAUGU
B6	0.144 KA relative to UGCAUGU
B7	0.101 KA relative to UGCAUGU
B8	0.13 KA relative to UGCAUGU
B9	0.0646 KA relative to UGCAUGU
B10	0.0874 KA relative to UGCAUGU
B11	0.23 KA relative to UGCAUGU
B12	0.137 KA relative to UGCAUGU
B13	0.0847 KA relative to UGCAUGU
B14	0.125 KA relative to UGCAUGU
B15	0.112 KA relative to UGCAUGU
B16	0.147 KA relative to UGCAUGU
B17	0.128 KA relative to UGCAUGU
B18	0.059 KA relative to UGCAUGU
B19	0.202 KA relative to UGCAUGU
B20	0.13 KA relative to UGCAUGU
